Reference: PubChem BioAssay AID286 (DTP/NCI, 2004)
Inconclusive results and toxic doses are left out. For part of its entries the source gives two or more results. Only these are listed. There may be further records. The records of an entry are repeats across runs, samples, wells, individuals or studies.

Test system: BDF1 mice, M5076 sarcoma ip, median survival T/C
Assay: NCI In Vivo Anticancer Drug Screen. Data for tumor model Sarcoma M5076 (intraperitoneal) in B6D2F1 (BDF1) mice
Conditions: endpoint: median survival time; dose: 24.0 mg/kg/injection; schedule: Q04DX004 (ip); vehicle: Klucel (hydroxypropylcellulose) (HPC); higher = longer survival
Procedure: The antitumor activity of compounds was measured in mice bearing transplantable tumors. Survival or tumor size were measured and the results are expressed as the measurement made in the treated group (T) divided by the measurement made in the vehicle treated control group (C). The tumor model used in this assay is Sarcoma M5076 (intraperitoneal) in B6D2F1 (BDF1) mice

SMILES: CC1CCC(NC(=O)N(CCCl)N=O)CC1 (stereo unspecified)
- T/C: 105 % of control, 216 % of control, 320 % of control
